In the supplement of paper PMC10126150:
Values marked as one replicate rest on one cluster of the flow cell; about a third of the high ones do not repeat.

System: ATP
Assay: switch fluorescence ratio, 500 uM ATP over buffer (Cy3 cluster intensity, sum of 5 cycles each) (fold (ratio)); higher = stronger signal-on switching upon ATP binding; sequences stand for … in TCGTCGGCAGCGTCAGATGTGTATAAGAGACAGTTTTTTTTTTTTTTTTTTTTTTTTT…TC
Conditions: aptamer strand: ATP DNA aptamer (quencher-CACCTGGGGGAGTATTGCGGAGGAAGG + anchor), 100 nM annealed; ATP concentration: 500 uM; one replicate
Procedure, shortened: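 Between each of five buffer/ATP cycles, the flow-cell was stripped with NaOH and re-annealed. Each cycle imaged Cy3-labelled switching-strand clusters, annealed to 100 nM quencher-labelled ATP aptamer on a modified Illumina MiSeq flow-cell, first in selection buffer and then after 15 min with 500 uM ATP at 22 °C. The fluorescence ratio is summed target-cycle over summed buffer-cycle Cy3 intensity per cluster, averaged per switch-domain sequence, with clusters outside 100-1000 RFU excluded.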
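Further: ATP exposure 15 min at 22 °C before imaging.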

Sequence	switch fluorescence ratio
GCAGGGGAAT	1.01
AGCGCCAAAA	1.01
GTCGGGGTCG	0.995
CCACGTCGAA	1.03
ATGAAAGAGA	0.984
AGAGGACTGC	1.03
GTAGACACGA	1.01
GGGAGTCCTT	0.932
GATTCTATGG	0.973
GTTTATATAG	1.05
TGATTGGGC	1.02
CCGTTATGGG	0.992
CGTCGGGCAC	1.11
GCTACCACGC	1.01
GTTTAGGCTC	0.965
TCATGCAACC	1.18
CATGTAGGGT	1.1
CTTTAAGATG	0.97
AGATCGGAAC	1.03
GTTGGCCCGC	1.04
TAAGCGTACT	1.09
CGATGTTCG	1.03
GCTGCATTTT	0.94

Sequence	switch fluorescence ratio
ACAAGCAGAA	1.08
CATTTAATGT	1.03
GCAAACGGGA	1.1
TAAGAGCGT	0.975
ATTACTCGTG	0.975
TGGATGCGAG	0.984
GCATCCTTGA	1
GAACTGAAGC	1.01
CATAAAGCAT	1.03
CTACGGGCAG	0.991
TATTCTATTG	0.959
CGCTTGAAGC	1.03
AGCGCTTGGA	0.99
TATGAAGAT	1.04
ACTCGGACAG	1.03
CGGGCAATCG	1.28
AACTCGATTA	0.945
TTAACTAGG	0.981
GTCACGTTGG	1.05
GGGGGTAGAA	0.99
GAGGTATAGA	1.03
TGGACTGATC	0.988
TTACCTATAC	1.34

Sequence	switch fluorescence ratio
GATCACTGCT	0.968
GGACTGAGT	0.982
TACTTCTGGT	1.01
AAGGTGCATG	1.07
AACTTCCCGC	3.06
GCAGGTTTAG	0.974
ACAGTAGAGA	1.03
CCGTTTGCCT	1.03
GGGACAACCA	1.02
CTCCCTTATG	1.08
ACTTATACCC	1.16
GAGTAGTTTC	0.955
CTCTTCGGCG	1.11
GTGCATTTCG	0.939
TTATGGTTGA	0.996
GAGGTGTAAC	0.998
TGAGTATGAA	0.983
GTTTGCATGT	0.944
GTCCAATCGC	1.08
CTATGATATG	0.989
GATGACCGCC	1.22
TTCGCTTT	1.37
TTGGGGCCCC	1.02

Sequence	switch fluorescence ratio
GCCGGAATTA	1.04
GGGATGGAAT	0.983
AGCTACGTGC	0.991
AGGTTTGAAA	1.67
CCTCCTCAGG	2.19
TGCCGTACCC	1.03
GACAGCTCAT	1.01
TAGAAAGC	0.984
ACTAGCACGG	1.33
TTTTTATCG	1.01
TTTTGTATG	0.977
GTTTGAATCT	1.05
TGATTCTGAA	0.997
AACAGTAAG	1
TTGCTGGTGC	0.959
ACATGTTTCC	1.02
AAGATAGATC	1.03
TCATAACGTT	0.956
GCTAAATTGG	0.989
GGTAGACTT	1.02
ATTTTCAGA	1.01
TTTGGAAACC	0.99
GGGAACCCTC	1

Sequence	switch fluorescence ratio
CGCCCAACT	1.1
GACTGGGCTC	1.01
TTATAAGCTC	0.956
CGGACTAGGC	1.05
TAACGTGTCG	0.992
GTTCCTTGTT	1
ACGAAGGTGG	0.987
TAGCAAAAG	1.24
ACAGGGCTG	0.966
AATGGCCGTT	0.997
TTGGTGTATG	1.05
CGTTTGTGGT	0.98
AATCGGTTAA	0.995
ATTTTTATGT	1.2
CCCACAGACG	1.27
AGAACTGGGA	1.01
TCTAGGGTTA	0.943
CAACTCCACT	1.16
GGGTAATAAT	0.974
CGGAGGCGAA	1.3
ACCGCGCCGC	1.75
CCGCGTCTCG	1.8
CTCTGCCATT	1.79

Sequence	switch fluorescence ratio
GATTCCGAAG	2.1
TAGGCAGCTA	0.979
TAATGTCAG	0.964
CTTGTTTTTC	1.03
TAAGTCAGTG	1.02
TATATTCAAT	1.02
GACTGCGGTG	0.993
GTTCGGTGTC	0.991
GATTTGGAT	0.99
AATGCCGAAT	1.03
TGAAGCGGGC	1.22
ACAGAGGCTG	1.02
ACGACAAGTT	1.08
CGATAAGGAC	1.04
TTATCTGAGT	1.02
AAACGATAAC	1.15
AATCAATGAA	1.05
GCACTTTGTT	1
GCGTACCTTA	1.06
GGCTATGGA	0.995
TACCCGCCTA	1.17
GCATGACCCA	1.03
ATGACACCCA	1.18

Sequence	switch fluorescence ratio
TGACATGGCA	0.961
GATTACATCC	1.07
TGCCAAACAG	1.01
AATAGCAAGT	1.12
GAGAAAAGCT	1.04
CCGTGCACTG	1.15
AAAATGAAGG	0.972
TAATCCCCGC	1.5
GGGTAATACA	1.04
CCCTATTCA	0.999
CAAGGTACGC	1.08
GTAATCAGTT	0.968
CGCTACCTAT	1.07
GCATTGGTGC	1
TGCGGTATTA	1.01
ATGCTCGGGC	0.985
GTACATATTA	1.05
CCCCATCGCC	1.06
CGAACTGTTA	1.01
GTATTTATC	1.03
